{"source": "the supplement of paper PMC3334620", "note": "Over roughly 33,000 sequences, “E-score (-0.5 to 0.5)” has its median near -0.013; the highest 2% begin near 0.3. Some of the results follow."}
{"target": "T1, Msn1 (UniProt P22148)", "T1 sequence": "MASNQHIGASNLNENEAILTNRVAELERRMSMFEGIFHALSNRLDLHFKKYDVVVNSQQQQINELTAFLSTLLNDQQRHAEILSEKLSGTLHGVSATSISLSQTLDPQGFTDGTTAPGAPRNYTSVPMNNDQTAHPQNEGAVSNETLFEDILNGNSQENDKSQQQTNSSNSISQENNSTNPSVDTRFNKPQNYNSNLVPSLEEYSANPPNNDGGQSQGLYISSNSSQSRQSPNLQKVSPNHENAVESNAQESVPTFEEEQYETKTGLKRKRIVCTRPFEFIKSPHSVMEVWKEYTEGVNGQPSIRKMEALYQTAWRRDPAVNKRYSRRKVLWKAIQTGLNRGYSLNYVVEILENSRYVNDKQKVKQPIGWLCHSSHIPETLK", "assay": "PBM E-score (8-mer binding enrichment) (E-score (-0.5 to 0.5)); higher = stronger / more preferred TF binding; most listed sequences are background and not binding sites", "details": "protein concentration: 200 nM; construct: GST-full length", "how_it_was_run": "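Each ungapped eight-base word and its reverse complement, pooled, received an E-score from the Universal PBM Analysis Suite. Underlying scans, normalised with masliner, recorded fluorescent anti-GST bound to GST-tagged yeast transcription factors. These were applied at about 100-200 nM to universal all-10-mer Agilent arrays double-stranded by primer extension.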"}
{"sequence": "GACTGATC", "PBM E-score": -0.00353}
{"sequence": "AGCCATCG", "PBM E-score": -0.0879}
{"sequence": "AAGCCCGC", "PBM E-score": -0.156}
{"sequence": "ACTCGACC", "PBM E-score": -0.143}
{"sequence": "ATAGATAA", "PBM E-score": 0.165}
{"sequence": "CACTGTAG", "PBM E-score": 0.0136}
{"sequence": "GGCAAGGA", "PBM E-score": 0.15}
{"sequence": "CAGCACTG", "PBM E-score": -0.226}
{"sequence": "AAGAGAGC", "PBM E-score": -0.261}
{"sequence": "CCGGTAAA", "PBM E-score": 0.062}
{"sequence": "CCATAAGC", "PBM E-score": -0.123}
{"sequence": "AAGTCGCA", "PBM E-score": 0.174}
{"sequence": "ATGGCGCC", "PBM E-score": -0.215}
{"sequence": "AGACGGCA", "PBM E-score": 0.0024}
{"sequence": "CCGATCCG", "PBM E-score": 0.068}
{"sequence": "TATGTCAA", "PBM E-score": 0.31}
{"sequence": "AATCGCGA", "PBM E-score": 0.12}
{"sequence": "ATACCTCG", "PBM E-score": 0.163}
{"sequence": "CCTATCGC", "PBM E-score": -0.273}
{"sequence": "AAGCGGGC", "PBM E-score": -0.207}
{"sequence": "ACGGTGGG", "PBM E-score": -0.132}
{"sequence": "ATCGTAAC", "PBM E-score": 0.00362}
{"sequence": "CGGTACCG", "PBM E-score": 0.149}
{"sequence": "GGCTTTTA", "PBM E-score": -0.106}
{"sequence": "CGCGAGGA", "PBM E-score": -0.162}
{"sequence": "AAATAAGC", "PBM E-score": 0.0511}
{"sequence": "ACTTGTAA", "PBM E-score": 0.0138}
{"sequence": "AATATGTC", "PBM E-score": 0.478}
{"sequence": "GCTGGTCC", "PBM E-score": -0.188}
{"sequence": "TCCAAGCA", "PBM E-score": -0.0625}
{"sequence": "CACGGTCG", "PBM E-score": -0.0634}
{"sequence": "CTGTCTAA", "PBM E-score": 0.111}
{"sequence": "TCTAGGCA", "PBM E-score": -0.00071}
{"sequence": "GATTCCGC", "PBM E-score": 0.0634}
{"sequence": "CGAAAAGC", "PBM E-score": -0.0729}
{"sequence": "CCCGTGTC", "PBM E-score": 0.14}
{"sequence": "CAGAGGAA", "PBM E-score": 0.0345}
{"sequence": "CCATTCGC", "PBM E-score": -0.254}
{"sequence": "TGTCGTAA", "PBM E-score": 0.257}
{"sequence": "GCCAACTA", "PBM E-score": -0.14}
{"sequence": "ATTTAGTC", "PBM E-score": 0.228}
{"sequence": "CACCTCAG", "PBM E-score": -0.168}
{"sequence": "CAAGGCCA", "PBM E-score": -0.078}
{"sequence": "CGTGAGGC", "PBM E-score": -0.12}
{"sequence": "AGGGATCG", "PBM E-score": -0.273}
{"sequence": "CAGATTGC", "PBM E-score": -0.0607}
{"sequence": "ACCGCCCT", "PBM E-score": -0.216}
{"sequence": "GGCGGGAA", "PBM E-score": -0.214}
{"sequence": "ACGACTAT", "PBM E-score": 0.199}
{"sequence": "CTCATCCC", "PBM E-score": -0.135}
{"sequence": "AAAGTAAG", "PBM E-score": 0.0969}
{"sequence": "CATCGGGC", "PBM E-score": -0.0678}
{"sequence": "TGGATACA", "PBM E-score": -0.119}
{"sequence": "CCCGTTGA", "PBM E-score": -0.0471}
{"sequence": "GGCGGACC", "PBM E-score": -0.31}
{"sequence": "GCCAGCAA", "PBM E-score": -0.135}
{"sequence": "CTAAACAC", "PBM E-score": 0.0571}
{"sequence": "ACGACTAA", "PBM E-score": 0.0439}
{"sequence": "CGCCGACG", "PBM E-score": -0.109}
{"sequence": "ACACCCCC", "PBM E-score": -0.189}
{"sequence": "GGCGCCAC", "PBM E-score": -0.195}
{"sequence": "CAGCTTCC", "PBM E-score": -0.224}
{"sequence": "GTGGGAAC", "PBM E-score": -0.0258}
{"sequence": "CATCGATA", "PBM E-score": 0.147}
{"sequence": "ATTAAACA", "PBM E-score": 0.184}
{"sequence": "AATATCTA", "PBM E-score": -0.05}
{"sequence": "GGTGACGA", "PBM E-score": -0.0575}
{"sequence": "CAGCTCCC", "PBM E-score": -0.263}
{"sequence": "GAACCTCC", "PBM E-score": -0.205}
{"sequence": "ATGACATC", "PBM E-score": 0.349}
{"sequence": "CCCTAGGG", "PBM E-score": -0.216}
{"sequence": "CACCTCAA", "PBM E-score": -0.0743}
{"sequence": "TTCAGGAA", "PBM E-score": 0.0345}
{"sequence": "CTTGCCAA", "PBM E-score": -0.0408}
{"sequence": "AAAGACCA", "PBM E-score": -0.24}
{"sequence": "GGAACCTA", "PBM E-score": -0.0823}
{"sequence": "ACTGAATG", "PBM E-score": 0.037}
{"sequence": "CGCCTACG", "PBM E-score": -0.146}
{"sequence": "ATGAACGA", "PBM E-score": 0.0422}
{"sequence": "TGACCAAA", "PBM E-score": 0.109}
{"sequence": "AATAATCT", "PBM E-score": 0.0363}
{"sequence": "ATTAGGCG", "PBM E-score": 0.19}
{"sequence": "CCGTAAGG", "PBM E-score": -0.268}
{"sequence": "GTTAGATA", "PBM E-score": 0.0727}
{"sequence": "CACATGCC", "PBM E-score": 0.0209}
{"sequence": "CTTGGGGA", "PBM E-score": 0.168}
{"sequence": "ACTCGCAT", "PBM E-score": 0.11}
{"sequence": "AGAGGTGG", "PBM E-score": 0.0356}
{"sequence": "AGTAAAGG", "PBM E-score": -0.0129}
{"sequence": "CACGCGAG", "PBM E-score": 0.197}
{"sequence": "GAGCAGAC", "PBM E-score": -0.0645}
{"sequence": "TGACAACA", "PBM E-score": 0.212}
{"sequence": "ACTAGGCC", "PBM E-score": -0.197}
{"sequence": "ATTATTAC", "PBM E-score": -0.00907}
